From publication PMC4336329 (PLoS ONE, 2015)
In all, about 310,000 compounds went through this assay and about 2,200 (0.71%) showed an effect of 50% or more. Effects have a minus sign here. Some of the results follow.

Biological target: human ether-à-go-go-related gene (hERG) potassium channel (human, UniProt Q12809)
Test: primary screen, population patch clamp on CHO cells stably expressing hERG

Chain of human ether-à-go-go-related gene (hERG) potassium channel (Q12809 whole entry, looked up): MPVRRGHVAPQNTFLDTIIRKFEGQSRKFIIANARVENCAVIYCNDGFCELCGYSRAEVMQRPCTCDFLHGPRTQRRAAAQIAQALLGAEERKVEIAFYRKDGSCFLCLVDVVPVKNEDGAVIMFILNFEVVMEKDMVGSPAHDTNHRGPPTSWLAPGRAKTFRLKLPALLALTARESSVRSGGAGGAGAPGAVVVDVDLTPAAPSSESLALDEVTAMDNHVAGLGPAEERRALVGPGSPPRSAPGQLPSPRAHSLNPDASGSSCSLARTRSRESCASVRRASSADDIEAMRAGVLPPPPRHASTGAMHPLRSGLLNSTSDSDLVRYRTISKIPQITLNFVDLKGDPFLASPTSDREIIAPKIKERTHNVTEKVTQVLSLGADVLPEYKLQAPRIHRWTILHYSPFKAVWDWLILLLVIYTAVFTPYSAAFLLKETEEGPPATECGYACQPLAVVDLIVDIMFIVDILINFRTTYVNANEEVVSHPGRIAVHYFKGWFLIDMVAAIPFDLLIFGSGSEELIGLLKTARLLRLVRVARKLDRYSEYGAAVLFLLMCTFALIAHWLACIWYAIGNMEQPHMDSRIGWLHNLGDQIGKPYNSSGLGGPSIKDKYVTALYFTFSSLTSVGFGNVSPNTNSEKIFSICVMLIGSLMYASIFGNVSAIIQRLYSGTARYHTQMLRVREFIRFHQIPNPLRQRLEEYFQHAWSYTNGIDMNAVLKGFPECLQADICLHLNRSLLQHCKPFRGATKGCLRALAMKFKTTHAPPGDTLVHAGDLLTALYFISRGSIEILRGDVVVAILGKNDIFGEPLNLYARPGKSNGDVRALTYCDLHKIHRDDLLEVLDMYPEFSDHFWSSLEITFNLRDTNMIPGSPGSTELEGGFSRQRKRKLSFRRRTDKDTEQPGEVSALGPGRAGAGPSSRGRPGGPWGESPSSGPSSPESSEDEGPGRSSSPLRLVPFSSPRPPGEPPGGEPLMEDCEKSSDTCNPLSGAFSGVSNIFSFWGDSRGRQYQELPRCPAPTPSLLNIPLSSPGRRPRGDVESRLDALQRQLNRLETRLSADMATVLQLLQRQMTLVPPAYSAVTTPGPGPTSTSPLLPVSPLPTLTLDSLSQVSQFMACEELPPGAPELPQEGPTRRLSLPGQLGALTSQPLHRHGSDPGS

Row | SMILES | hERG current change (%, negative = inhibition) at 1uM [%]
1 | O=S(=O)(NNc1nccc(C(F)(F)F)n1)c1cccc(Cl)c1Cl | 15.8
2 | Cc1cccc(OCc2nnc(SCC(=O)OC3CCCCC3)o2)c1 | 16.5
3 | O=C1CC(=C(c2ccccc2)c2ccccc2)C(=O)N1CCCCN1CCN(c2ccccc2)CC1 | 4.62
4 | CC12CCC(C(=O)Nc3cccc4ccccc34)(C1Br)C2(C)C (stereo not shown) | 20.6
5 | Nn1c(SCC(=O)Nc2ccc(F)c(F)c2)nnc1C1CCCCC1 | 11.4
6 | CCN(CC)CC.COc1ccc(OC)c(-n2c(=S)[nH]c3c(sc(=S)n3-c3ccccc3)c2=O)c1 | 13.8
7 | CN(CC(=O)N1CCN(c2ccccn2)CC1)S(=O)(=O)c1ccc2ccccc2c1 | 4.44
8 | Cc1[nH]n2c(=O)c3c(nc2c1-c1cccc2ccccc12)CCC3 | 16.5
9 | CC1CCCCN1C(=O)c1cc(Cl)ccc1[N+](=O)[O-] (stereo not shown) | 3.75
10 | CC(=O)c1c(C)[nH]c(C(=O)OCC(=O)N2CCN(S(=O)(=O)c3ccc(C)cc3)CC2)c1C | 16
11 | C=CCn1c(SCC(=O)O)nnc1-c1ccc(C(C)(C)C)cc1 | 3.34
12 | CCN1CCCC1CNC(=O)Cn1cnc2sc(C)c(S(=O)(=O)N3CCC(C)CC3)c2c1=O (stereo not shown) | 4.33
13 | COc1ccc(NS(=O)(=O)c2ccc3oc(SC(C)C(N)=O)nc3c2)cc1 (stereo not shown) | 17.3
14 | CCCCc1c(C)nc(N2CCCC2)[nH]c1=O | 11.6
15 | CSc1cccc(NC(=O)CSc2nnc(C)s2)c1 | 2.62
16 | CN1CCCC(OC(=O)c2ccc(Cl)cc2)C1.Cl (stereo not shown) | 10.4
17 | O=C(CSc1nc2ccccc2c(=O)n1-c1ccccc1F)Nc1ccc2c(c1)CCC2 | 14.6
18 | CCCCCC(O)(c1ccccc1)C(CN1CCOCC1)c1ccccc1.Cl (stereo not shown) | 7.36
19 | Cc1ccc(CC(=O)N2CCN(C(=O)c3ccco3)CC2)cc1 | 9.61
20 | O=C(CN(C(=O)Cn1nnc(-c2ccc(F)cc2)n1)c1ccc(F)cc1)NC1CCCC1 | 11.9
21 | O=C(CCS(=O)(=O)c1ccccc1)N1CCN(c2ccccc2F)CC1 | 15.8
22 | O=C(NC1CCCC1)c1cc(-c2ccc(Cl)cc2Cl)on1 | 7.05

Row | SMILES | hERG current change (%, negative = inhibition) at 1uM [%]
23 | O=C(Nc1ccccc1N1CCOCC1)C1CCN(S(=O)(=O)c2ccc(Cl)cc2)CC1 | 6.63
24 | CC(=O)Nc1cccc(Oc2ccc3c(c2)C(=O)NC3=O)c1 | 14.2
25 | Cc1ccc(CNC(=O)C2CCCN2S(=O)(=O)c2ccc3c(c2)C(C)(C)C(=O)N3C)cc1 (stereo not shown) | 6.8
26 | Cc1ccc(-c2csc(NC(CO)c3nc4ccccc4n3CCOCCO)n2)cc1 (stereo not shown) | -4.22
27 | COc1cccc(N2CCN(S(=O)(=O)c3ccc4c(c3)NC(=O)C(C)C(=O)N4)CC2)c1 (stereo not shown) | 4
28 | Cn1c(=O)cc(OCCCC(=O)NCc2cccnc2)c2ccccc21 | 6.27
29 | Cc1ccc(-n2ncc3c(N4CCN(c5ccccc5)CC4)ncnc32)c(C)c1 | -5.64
30 | CCC1(C)Cc2c(sc3nc(SC)nc(NCCN(C)C)c23)CO1 (stereo not shown) | -13.3
31 | CCCCCCCOC(=O)c1nc(Cl)c(Cl)c(N)c1Cl | 0.504
32 | Cc1cc(C)n(CCC(=O)N=Nc2c(O)[nH]c3ccccc23)n1 | 4.21
33 | N#CCCN1CCCN(CCC#N)CCN(CCC#N)CCCN(CCC#N)CC1 | 16.3
34 | O=C(CN1c2cccc3cccc(c23)S1(=O)=O)N1CCN(c2ccc(F)cc2)CC1 | 3.26
35 | Cc1ccc(S(=O)(=O)n2[nH]c(=O)cc2NC(=O)c2cccs2)cc1 | 5.74
36 | Cc1ccc(N2C(=O)Nc3cc(Cl)c(Cl)cc3N2O)cc1Cl | 12.7
37 | Cc1ccc(CN2CCN(C3CCCC3)C(CCO)C2)s1 (stereo not shown) | 3.65
38 | COc1cccc(NS(=O)(=O)c2ccc(S(=O)(=O)N3CCCC3)cc2)c1 | 4.73
39 | COc1ncnc2c1NC(=O)CS2 | 10.2
40 | Cc1cccc(OCC(=O)Nc2nonc2NC(=O)COc2cccc(C)c2)c1 | 10.7
41 | CCN=C1S/C(=C\c2cn(C(C)=O)nc2-c2ccccc2)C(=O)N1CC | 17
42 | O=C(CNC(=O)c1ccccc1F)NCCc1ccc(Cl)cc1 | 9.91
43 | Cc1ccc(S(=O)(=O)/N=C(/Nc2ccc(F)cc2F)c2ccc(F)cc2)cc1 | 10.5
44 | CCOc1ccccc1N(CC(=O)NC1CCCCC1)S(=O)(=O)c1ccc(C)cc1 | 10

Row | SMILES | hERG current change (%, negative = inhibition) at 1uM [%]
45 | Cc1ccc(S(=O)(=O)N2CCOCC2)cc1NC(=O)CSc1ccc(Cl)cc1 | -0.243
46 | Cc1c(Cl)cccc1N1C(=O)c2ccccc2C1=O | 6.94
47 | Cc1cc(NC(=O)CCC(=O)N(Cc2ccco2)C(C(=O)NC2CCCC2)c2ccccc2C)no1 (stereo not shown) | 6.65
48 | CCCCSc1nc2ccccc2n1CC(=O)O | 10.8
49 | O=C(CSC1=NCCS1)NCc1ccco1 | 14.7
50 | CC1=C(C)C(=O)C(CCCCC#CCCCC#CCO)=C(C)C1=O | -0.707
51 | COc1cc(C(=O)Nc2ccccn2)cc(OC)c1OC | 14.8
52 | Cc1ccc(C)c(OCCCCN2CCNCC2)c1C.O=C(O)C(=O)O | 9.14
53 | COc1ccccc1NC(=O)C1CCCN1C(=O)NC1CCCCC1 (stereo not shown) | 9.3
54 | CC(C)C(NC(=O)CCNC(=O)c1ccc([N+](=O)[O-])cc1)c1nc2ccccc2[nH]1 (stereo not shown) | 8.95
55 | COc1cc(NC(=O)Cn2nnc(-c3ccncc3)n2)cc(OC)c1 | 10.7
56 | O=C(NCc1ccc2c(c1)OCO2)c1cnc2ccccn2c1=O | 5.17
57 | O=C(CCSc1ccccc1)NC(=O)COC(=O)C1CCCCC1 | 6.89
58 | COc1ccccc1CN1C[C@@H]2C[C@@H](c3[nH]c4c(C)cccc4c3C)N3CCC[C@@]23C1=O | 3.11
59 | O=C(Nc1ccon1)c1ccc(Br)o1 | -1.21
60 | CCOC(=O)c1[nH]cnc1C(=O)N1CCC(C)CC1 | 24.3
61 | Cc1ccc(C2=NNC(=O)C(c3ccc(Cl)cc3)C2)cc1 (stereo not shown) | 2.89
62 | CCc1nnc(NC(=O)c2ccc(S(=O)(=O)N3CCCCC3)cc2)s1 | 8.05
63 | Cn1c(=O)c(=O)n(C)c2cc(S(=O)(=O)N3CCc4ccccc43)ccc21 | -8.77
64 | COc1ccc(OC)c(C(C)NC(=O)c2ccco2)c1 (stereo not shown) | -0.976
65 | Cc1cc(C)c(C)c(C(=O)COC(=O)CNC(=O)CN2C(=O)c3ccccc3C2=O)c1C | 5.4
66 | CCOC(=O)N1CCN(C(=O)c2sc3nc(-c4ccc(F)cc4)cn3c2C)CC1 | -22.3

Row | SMILES | hERG current change (%, negative = inhibition) at 1uM [%]
67 | COC(=O)CSc1nc(C(C)C)nc2ccccc12 | 1.09
68 | Cc1[nH]c2ccccc2c1Cc1nnc(SCC(N)=O)o1 | 10.7
69 | CN(C)S(=O)(=O)c1cc(NC(=O)COC(=O)CCc2ccccc2)ccc1Cl | 3.19
70 | Cc1ccc(N(CC(O)CN2CCOCC2)S(=O)(=O)c2ccc3ccccc3c2)cc1 (stereo not shown) | -55.6
71 | CCOC(=O)C1=NN(c2ccccc2)C(=O)/C1=C\c1ccc(N(C)C)cc1 | 19.4
72 | O=C(O)CCC(=O)Nc1sc2c(c1C(=O)Nc1ccccc1)CCCCC2 | 12.2
73 | COc1cc(/C=C2\C(=O)NC(=O)N(c3ccc(C)cc3)C2=O)cc(OC)c1O | 7.42
74 | O=C(Cn1c(=O)oc2cc(S(=O)(=O)N3CCCC3)ccc21)NCc1ccccn1 | 6.64
75 | CCCCCCCC1CC(/C(C)=N/NC(N)=O)OC1=O (stereo not shown) | -16.2
76 | O=C(CNC(=O)Cn1cnc2sc3c(c2c1=O)CCCC3)NCc1ccccn1 | 16.6
77 | CCN(CC(=O)Nc1c(F)cccc1F)C(=O)CSC(=S)N1CCCC1 | 6.34
78 | O=C(O)c1ccc(CSc2nnc(-c3ccncc3)n2CC2CCCO2)cc1 (stereo not shown) | 11.5
79 | CC(C)c1ccc(Nc2nc(CC(=O)O)cs2)cc1 | 13.2
80 | Cc1ccc(-n2nc(N)c3c(=O)oc(N(C)C)nc32)cc1 | 7.91
81 | Cc1cc(C)c[n+](-c2nc3ccccc3nc2[N-]S(=O)(=O)c2ccc(Br)s2)c1 | 3.02
82 | Cc1cc(N)n2nc(-c3ccccc3)c(-c3ccccc3)c2n1 | 9.65
83 | O=C(CSC1=Nc2ccccc2C2=NC(Cc3c[nH]c4ccccc34)C(=O)N12)NC1CCCCC1 (stereo not shown) | 5.25
84 | CC1(C)CC[C@@]23CC[C@]4(C)[C@@](OC2=O)(C3C1)[C@H]1O[C@H]1C1[C@@]2(C)CC[C@H](O)C(C)(C)C2CC[C@]14C (stereo partly shown) | 6.15
85 | Cc1cccc(OCc2nc(-c3nonc3N)no2)c1C | 0.647
86 | Cn1cnnc1SCC(=O)Nc1ccc(F)cc1 | 17.4
87 | CCN1CCN(C(=O)c2cc(COc3ccc(F)cc3F)on2)[C@@H](C)C1=O | 10.7
88 | COc1ccc(Br)c(-c2nc(CS(=O)(=O)c3ccc(F)cc3)no2)c1 | 8.18
